# Data reported in the RNAGym collection of RNA variant scans (doi:10.1093/nar/gkz1192).
# Read counts are not given, so values of variants with three or more changes are uncertain.
# B1: CPEB3 Ribozyme (parent)
# chain: UAACAGGGGGCCACAGCAGAAGCGUUCACGUCGCAGCCCCUGUCAGAUUCUGGUGAAUCUGCGAAUUCUGCUGUAUAUCUC
# Variants of: B1
# Test: self-cleavage, relative activity (ratio to wild type); higher = more cleavage; in vitro, sequencing
# Outline: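 Relative activity was defined as the cleaved/total read fraction for a variant divided by the same fraction for the unmutated ribozyme. CPEB3 self-cleaving ribozyme libraries were made by rounds of error-prone PCR, barcoded, and transcribed in vitro with T7 RNA polymerase for 5 hours at 37°C, and cleavage ran through transcription plus a 15 min DNase I step before EDTA. Illumina sequencing of template-switched reverse transcripts gave the reads, and DNA sequencing mapped the barcodes. Averages come from three batches, using variants with at least 5 reads.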
row,Variant,self-cleavage
1,UAACAGGGGGCCACAGCAGAAGCGGUCGCGUCGCAGCCCCUGUCAGAUUCCGGUGAAUCUGCGAAUUCUGCUGCAUAUCUC [U25G A28G U51C U74C],0.11
2,UAACAGGGGGCCACAGCAGAAGCGUACAAGUCACAGCCCCUGUCAGAUUCUGGUGAAUCUGCGAAUUCUGCUGUAUAUCCC [U26A C29A G33A U80C],0.25
3,UAACAGGGGGCCACAGCAGAAGCGUACACGUCGCGGCCCCCGUCUGAUCCUGGUGAAUCUGCGAAUUCUGCUGUUUAUCUC [U26A A35G U41C A45U U49C A75U],0.08
4,UAACAGGGGGCCACAGCAGAAGCGCUCACGUCGCAGCCCCUGUCAGAUUCUGGUGAAUCGGCGAGAUCUGCUGUAUAUCUC [U25C U60G A65G U66A],0.11
5,UAACAGGGGGCCACAGCAGAAGCGGUCACGUCGCAGCCCCUGCCAGAUUCUGGUGGAUCUGCGAAUUCUGCUGUAUAUCCC [U25G U43C A56G U80C],0.14
6,UAACAGGGGGCCACAGCAGAAGCGUACGCCUCGCAGCCCCUGUCAGAUUCUGGUGAAUCUGCGAAUUCCGCUGUAUAUCUC [U26A A28G G30C U69C],0.12
7,UAACAGGGGGCCACAGCAGAAGCGUACACGUCGCAGCCCCUGUCAGAUUCUGGUGAAUCUGCGGAUUCUGCUGUAUAUCCC [U26A A64G U80C],0.72
8,UAACAGGGGGCCACAGCAGAAGCGGUUACGUCGCAGCCCUUGUCAGAUUCUGGUGGAUCAGCGAAUUCUGCUGUAUAUCCC [U25G C27U C40U A56G U60A U80C],0.21
9,UAACAGGGGGCCACAGCAGAAGCGUACACGUCGUCGCCCCUGCCAGAUUCUGGUGAAACUGCGAAUUCUGCUGCAUAUCUC [U26A C34U A35C U43C U58A U74C],0.07
10,UAACAGGGGGCCACAGCAGAAGCGUACACGUUGCAGCCCCCGUCAGAUUCUGGUGAAUCUGCGAAUUCUGCUGUAUACUUC [U26A C32U U41C U78C C79U],0.08
11,UAACAGGGGGCCACAGCAGAAGCGUACACGUCGCGGCCCCUGUCAGACUCUGGUGAAUCUGCGAACUCUGCCGUAUAUCUC [U26A A35G U48C U66C U72C],0.59
12,UAACAGGGGGCCACAGCAGAAGCGUACACGUCGCGGCCCCUGUCAGAUUCUGGUGAAUCUGCGAACUCUGCUGUAUAUCUC [U26A A35G U66C],1.1
13,UAACAGGGGGCCACAGCAGAAGCGGUCGCGUCGCAGCCCCUGUCAGAUUCUGGUGAAUCUGCGAAUUCUGCUGGUUAUCUC [U25G A28G U74G A75U],0.57
14,UAACAGGGGGCCACAGCAGAAGCGGUCACAUCGCAGCCCCUGUCAGAUUCUGGUGAAUCCGCGAAUUCUGCUGUAAAUCUC [U25G G30A U60C U76A],0.08
15,UAACAGGGGGCCACAGCAGAAGCGUACAUGUCGAAGCCCCUGUCAGAUUCUGGUGAAUCUGCGAAUUCUGCUGUAUAUCUC [U26A C29U C34A],0.1
16,UAACAGGGGGCCACAGCAGAAGCGUACACGUGGCAGCCCCUGUCAGAUUCUGGUGAAUCUGCUAAUUCUGCUGUAUAUCUC [U26A C32G G63U],0.17
17,UAACAGGGGGCCACAGCAGAAGCGGUCACGUCGCAGCCCCUGUCAGAUUCUGGUGAAUCUGCGAAUUCAGCUGUAUAUCCC [U25G U69A U80C],0.1

row,Variant,self-cleavage
1,UAACAGGGGGCCACAGCAGAAGCGUACACGUCGCAGCCCCUGUCAGAUUCUGGUGACUCUGCGAAUUCUGCUGUAUGUCUC [U26A A57C A77G],0.27
2,UAACAGGGGGCCACAGCAGAAGCGUACACGUCGCGGCCCCUGUCAGAUUCUGGUGAAUCUGCAAAUUCUGCUGUAUAUCAC [U26A A35G G63A U80A],1.27
3,UAACAGGGGGCCACAGCAGAAGCGUACACGUCGCAGCCCAUGUCAGAUUCUGGUGAAUCUGAGAAUUCUGCAGUAUAUCUC [U26A C40A C62A U72A],0.08
4,UAACAGGGGGCCACAGCAGAAGCGUACGCGUCGCAGCCCCUGUCAGAUUCUGGUGAAUCUGCGAAUUCUGCUGUAUACCUC [U26A A28G U78C],0.18
5,UAACAGGGGGCCACAGCAGAAGCGCUCACGUCGCAGCCCCUGUCAGAUUCUGGUGAAUCUGCGAAUUCUGCAGUAUGUCUC [U25C U72A A77G],0.07
6,UAACAGGGGGCCACAGCAGAAGCGGUCUCGUCGCAGCCCCUGUCAGAUUCUAGUGAAUCUGCGAAUUCCGCGGUAUAUCUC [U25G A28U G52A U69C U72G],0.07
7,UAACAGGGGGCCACAGCAGAAGCGUACGCGUUGCAGCCCCUGUCAGGUCCUGGUGAAUCUGCGAGUUCUGCUGUAUUUCUC [U26A A28G C32U A47G U49C A65G A77U],0.02
8,UAACAGGGGGCCACAGCAGAAGCGUACGCGUCACAGCCCCUGACAGAUUCUGGUGUAUCUGCGAGUUCUGCUGUAUAUCCC [U26A A28G G33A U43A A56U A65G U80C],0.08
9,UAACAGGGGGCCACAGCAGAAGCGGUCACGUCGCAGCCCCCGUCAGAUUCUGGUGAAUCUGCGAAUUCCGCUGUAUAUCUC [U25G U41C U69C],0.27
10,UAACAGGGGGCCACAGCAGAAGCGUACACGUCGCUGCCCCUGUCAGAUUCUGGUGAAUCUGCGAAUUCUGCCGUAUAUCUC [U26A A35U U72C],0.41
11,UAACAGGGGGCCACAGCAGAAGCGGUCACGUCGCAGCCCCUGUCAGAUUCUGGUGAAUCUGCGAAUUCUGUUGUAUAUCCC [U25G C71U U80C],0.36
12,UAACAGGGGGCCACAGCAGAAGCGCUCACGUCGCAGCCCCUGUCAGAUUCUGGUGAAUCUGCGAAUGCUGCUGUAUAUCAC [U25C U67G U80A],0.37
13,UAACAGGGGGCCACAGCAGAAGCGCUCACGUCGCAGCCCCUGUCAGAUUCUGGUGAAUCUGCGAAUUCUGCCGUAUACCUC [U25C U72C U78C],0.09
14,UAACAGGGGGCCACAGCAGAAGCGUACACGUAGCUGACCCUGUCAGAUUCUGGAGAAUCUGCGAACUCUGCUGUAUAUCUC [U26A C32A A35U C37A U54A U66C],0.07
15,UAACAGGGGGCCACAGCAGAAGCGUACACGUCGCAGUCCCUGUCAGAUUCUGGUGUAUCUGCGAAUUCUGCUGUAAAUCUC [U26A C37U A56U U76A],0.25
16,UAACAGGGGGCCACAGCAGAAGCGUACACGUCGCAGCCACUGUCAGAUUCUGGUGACUCUGCGAAUUCUGCUGUAUAUCUC [U26A C39A A57C],0.07
17,UAACAGGGGGCCACAGCAGAAGCGUACACGUCGCAGCACCUGUCAGAUUCUGGUGAAUCUGCGAAUUCUGCCGUAUAUCUC [U26A C38A U72C],0.44
